The antibiotic and cytotoxicity screens of Wong et al. (2023)
The list shows a part of the results.

How the values were obtained:
[1] = tested on: HSkMC (human skeletal muscle cells); assay: cytotoxicity call (relative viability < 0.9); settings: 10 µM
[2] = tested on: HepG2; assay: cytotoxicity call (relative viability < 0.9); settings: 10 µM
[3] = tested on: S. aureus RN4220; assay: growth inhibition call (relative growth <= 0.2); settings: 50 µM

Row | Compound | cytotoxicity call [1] | cytotoxicity call [2] | growth inhibition call [3]
1 | COc1ccc(S(=O)(=O)N(C)C[C@@H]2OCCCC[C@H](C)Oc3ccc(NC(=O)CCC(F)(F)F)cc3C(=O)N([C@@H](C)CO)C[C@H]2C)cc1 | inactive | inactive | inactive
2 | C[C@@H]1CCCCO[C@@H](CN(C)C(=O)C2CCCCC2)[C@H](C)CN([C@@H](C)CO)C(=O)c2cc(NC(=O)Nc3ccc4c(c3)OCO4)ccc2O1 | inactive | inactive | inactive
3 | CC=Cc1ccc2n(c1=O)C[C@@H]1[C@@H](CO)[C@H](C(=O)NCC)[C@H]2N1S(=O)(=O)c1cn(C)cn1 | inactive | inactive | inactive
4 | Cc1cc(=O)n2nc(S(C)(=O)=O)nc2[nH]1 | inactive | inactive | inactive
5 | C[C@H]1CN([C@@H](C)CO)C(=O)c2cc(C#CCc3ccccc3)cnc2O[C@H]1CN(C)C(=O)C1CCOCC1 | inactive | inactive | inactive
6 | C[C@@H]1CN([C@H](C)CO)C(=O)c2cc(NS(=O)(=O)c3ccc(Cl)cc3)ccc2O[C@@H](C)CCCCO[C@H]1CN(C)C(=O)Nc1ccc(F)cc1 | inactive | active | inactive
7 | C[C@H](CO)N1C[C@H](C)[C@@H](CN(C)C(=O)Nc2ccc(F)cc2)Oc2ccc(NS(C)(=O)=O)cc2CC1=O | inactive | inactive | inactive
8 | CCCN(C)C[C@H]1OCCCC[C@H](C)Oc2ccc(NC(=O)CCC(F)(F)F)cc2C(=O)N([C@@H](C)CO)C[C@H]1C | inactive | inactive | inactive
9 | CC1=NNC(=O)CC1 | inactive | inactive | inactive
10 | Cc1noc(C)c1S(=O)(=O)Nc1ccc2c(c1)C(=O)N([C@@H](C)CO)C[C@H](C)[C@@H](CN(C)S(=O)(=O)c1cn(C)cn1)O2 | inactive | inactive | inactive
11 | C[C@H](CO)N1C[C@H](C)[C@H](CN(C)Cc2ccc(C(F)(F)F)cc2)OCCCC[C@H](C)Oc2ccc(NC(=O)c3ccncc3)cc2C1=O | inactive | inactive | inactive
12 | C[C@H]1CN([C@@H](C)CO)C(=O)c2ccccc2-c2ccccc2CO[C@H]1CN(C)S(=O)(=O)c1ccc(C(F)(F)F)cc1 | inactive | inactive | inactive
13 | COc1ccc2c3c(n(c2c1)C)[C@@H](CO)N(C[C@]13CCN(CC1)C(=O)CC1CC1)C(=O)CN1CCOCC1 | inactive | inactive | inactive
14 | C[C@H](CO)N1C[C@H](C)[C@@H](CN(C)S(=O)(=O)c2ccccc2)Oc2ccc(NC(=O)Cc3ccccc3)cc2CC1=O | inactive | inactive | inactive
15 | CC(C)(Oc1ccc(Cl)cc1)C(=O)O | inactive | inactive | inactive
16 | C[C@H]1CN([C@@H](C)CO)C(=O)c2cccc(NS(C)(=O)=O)c2O[C@H]1CN(C)C(=O)Nc1ccc2c(c1)OCO2 | inactive | inactive | inactive
17 | C[C@H](CO)N1C[C@H](C)[C@H](CN(C)Cc2ccncc2)OCCCC[C@H](C)Oc2ccc(NC(=O)c3ccccc3)cc2C1=O | inactive | inactive | inactive
18 | COC(=O)c1c(CC[C@@H](CO)NC(=O)N[C@@H](Cc2ccccc2)Cn2cc(-c3ccccn3)nn2)oc(C(=O)N2CCOCC2)c1C(=O)OC | inactive | inactive | inactive
19 | COc1cccc(S(=O)(=O)N2C[C@@H](O)COC[C@@H]3O[C@@H](CC(=O)NCCCN4CCOCC4)CC[C@H]32)c1 | inactive | inactive | inactive
20 | C[C@H]1CCCCO[C@@H](CN(C)C(=O)c2ccncc2)[C@@H](C)CN([C@@H](C)CO)C(=O)c2cc(NS(C)(=O)=O)ccc2O1 | inactive | inactive | inactive
21 | COCC#Cc1ccc2c(c1)O[C@@H](CN(C)C(=O)COC)[C@H](C)CN([C@H](C)CO)S2(=O)=O | inactive | inactive | inactive
22 | O=C(C[C@H]1CC[C@@H]2[C@H](COC[C@H](O)CN2S(=O)(=O)c2ccc(F)cc2)O1)NCc1ccc(Cl)c(Cl)c1 | inactive | inactive | inactive
23 | C[C@H](CO)N1C[C@H](C)[C@@H](CN(C)C(=O)NC2CCCCC2)OCCCC[C@H](C)Oc2ccc(NC(=O)Cc3ccccc3)cc2C1=O | inactive | inactive | inactive
24 | Cc1ccccc1-c1cc(N2CCN(C)CC2)ncc1N(C)C(=O)C(C)(C)c1cc(C(F)(F)F)cc(C(F)(F)F)c1 | inactive | inactive | active
25 | C[C@@H]1CCCCO[C@@H](CN(C)C(=O)Nc2ccc3c(c2)OCO3)[C@H](C)CN([C@@H](C)CO)C(=O)c2cc(NC(=O)CCC(F)(F)F)ccc2O1 | inactive | inactive | inactive
26 | C[C@H]1CN([C@@H](C)CO)C(=O)Cc2cc(NC(=O)CCCCCC(=O)Nc3ccccc3N)ccc2O[C@@H]1CN(C)Cc1ccc(Oc2ccccc2)cc1 | inactive | inactive | inactive
27 | O=C(NCCN1CCOCC1)c1cccs1 | inactive | inactive | inactive

Row | Compound | cytotoxicity call [1] | cytotoxicity call [2] | growth inhibition call [3]
28 | C=C1C(=O)O[C@@H]2[C@H]3C(=CO[C@@H]4O[C@H](CO)[C@@H](O)[C@H](O)[C@H]4O)CC(=O)C3=C(C)CC[C@@H]12 | inactive | inactive | inactive
29 | Cc1ccc(S(=O)(=O)Nc2ccc3c(c2)C(=O)N([C@@H](C)CO)C[C@H](C)[C@@H](CN(C)C(=O)Nc2c(C)noc2C)OCCCC[C@H](C)O3)cc1 | inactive | inactive | inactive
30 | CCOC(=O)C(C#N)C1=NCCC1 (configuration not stated) | inactive | inactive | inactive
31 | C[C@@H]1CCCCO[C@@H](CN(C)C(=O)Nc2ccccc2)[C@@H](C)CN([C@@H](C)CO)C(=O)c2cc(NC(=O)NC3CCCCC3)ccc2O1 | inactive | inactive | inactive
32 | C[C@@H]1O[C@@H](O[C@H]2[C@H](O)[C@@H](O)[C@H](OC(=O)[C@]34CCC(C)(C)C[C@H]3C3=CC[C@H]5[C@@]6(C)CC[C@H](O[C@@H]7O[C@H](C(=O)O)[C@@H](O)[C@H](O)[C@H]7O)C(C)(C)[C@@H]6CC[C@@]5(C)[C@]3(C)CC4)O[C@@H]2CO)[C@H](O)[C@H](O)[C@H]1O | inactive | inactive | inactive
33 | COc1ccc2c3c(n(c2c1)C)[C@H](CO)N(Cc1cc(cc(c1)OC)OC)C[C@]13CN(C1)C(=O)CN1CCOCC1 | inactive | inactive | inactive
34 | CC(C)NC(=O)N(C)C[C@H]1Oc2ccc(NC(=O)CCN3CCOCC3)cc2CC(=O)N([C@H](C)CO)C[C@@H]1C | inactive | inactive | inactive
35 | C[C@@H]1CN([C@H](C)CO)C(=O)c2cc(NS(C)(=O)=O)ccc2O[C@@H](C)CCCCO[C@H]1CN(C)CC1CC1 | inactive | inactive | inactive
36 | C[C@H]1CCCCO[C@@H](CN(C)C(=O)Nc2ccc(C(F)(F)F)cc2)[C@@H](C)CN([C@@H](C)CO)C(=O)c2cc(NC(=O)Nc3ccc(C(F)(F)F)cc3)ccc2O1 | inactive | inactive | inactive
37 | C[C@@H]1CN([C@@H](C)CO)C(=O)Cc2cc(NC(=O)Cn3cnnn3)ccc2O[C@H]1CN(C)Cc1ccc2c(c1)OCO2 | inactive | inactive | inactive
38 | C[C@@H]1CN([C@@H](C)CO)C(=O)CCCn2cc(nn2)CO[C@H]1CN(C)S(=O)(=O)c1ccc(-n2cccn2)cc1 | inactive | inactive | inactive
39 | CC1=Nc2ccccc2NC(C)(C)C1 | inactive | inactive | inactive
40 | O=C(C[C@@H]1C=C[C@@H](NC(=O)CN2CCOCC2)[C@@H](CO)O1)NC1CCCCC1 | inactive | inactive | inactive
41 | C[C@@H]1CN([C@@H](C)CO)C(=O)Cc2cc(NS(=O)(=O)c3cccs3)ccc2O[C@H]1CN(C)Cc1ccc(Cl)c(Cl)c1 | inactive | inactive | inactive
42 | C[C@@H]1CN([C@H](C)CO)C(=O)Cc2cc(NC(=O)CCN3CCOCC3)ccc2O[C@H]1CN(C)Cc1ccncc1 | inactive | inactive | inactive
43 | COc1ccc(S(=O)(=O)Nc2ccc3c(c2)C(=O)N([C@H](C)CO)C[C@H](C)[C@H](CN(C)C(=O)Nc2cccc4ccccc24)OCCCC[C@@H](C)O3)cc1 | inactive | inactive | inactive
44 | O=c1nc[nH]c2c1ncn2[C@@H]1C[C@@H](O)[C@H](CO)O1 | inactive | inactive | inactive
45 | COCC(=O)Nc1ccc2c(c1)C(=O)N(C)[C@@H]1CC[C@H](CC(=O)N3CCc4ccccc4C3)O[C@H]1CO2 | inactive | inactive | inactive
46 | COc1cccc(S(=O)(=O)Nc2ccc3c(c2)[C@@H]2C[C@H](CC(=O)NC4CCCCC4)O[C@H](CO)[C@@H]2O3)c1 | inactive | inactive | inactive
47 | COc1ccc(S(=O)(=O)N(C)C[C@H]2OCCCC[C@@H](C)Oc3ccc(NC(=O)CCCCCC(=O)Nc4ccccc4N)cc3C(=O)N([C@H](C)CO)C[C@H]2C)cc1 | inactive | inactive | inactive
48 | C[C@H](CO)N1C[C@H](C)[C@@H](CN(C)C(=O)c2ccccc2)OCCCC[C@H](C)Oc2ccc(NC(=O)Nc3ccc4c(c3)OCO4)cc2C1=O | inactive | inactive | inactive
49 | Cc1ccc(S(=O)(=O)Nc2ccc3c(c2)C(=O)N([C@H](C)CO)C[C@H](C)[C@@H](CN(C)S(C)(=O)=O)OCCCC[C@H](C)O3)cc1 | inactive | inactive | inactive
50 | COc1ccc(NC(=O)Nc2ccc3c(c2)C(=O)N([C@H](C)CO)C[C@@H](C)[C@H](CN(C)C(=O)Nc2ccc(C(F)(F)F)cc2)OCCCC[C@@H](C)O3)cc1 | inactive | inactive | inactive
51 | O=C1c2ccccc2C(=O)C1c1ccc(Br)cc1 | inactive | inactive | inactive
52 | CC12C=CC(=O)C=C1CCC1C2C(=O)CC2(C)C1CCC2(O)C(=O)CO (configuration not stated) | inactive | inactive | inactive
53 | NC(=O)c1cc(S(N)(=O)=O)ccc1Cl | inactive | inactive | inactive
54 | Cc1cc2c(cc1N)n(C)c(=O)n2C | inactive | inactive | inactive
